In the supplement of paper PMC10037445:
Whole data set: some 2,900 compounds, median “NF-kB SEAP reporter activity, fold change vs agonist alone” near 0.99, cut for the highest 2% near 2.6. The list shows a part of the results.

What was measured:
RAW-Dual [1] = experiment: NF-kB SEAP reporter activity, fold change vs agonist alone; cytotoxicity flag (confluency mask): cytotoxic (confluency <70% of control); higher = enhanced NF-kB activity
Procedure, shortened: (§1)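 RAW-Dual macrophages were seeded in DMEM at 50,000 cells/well in 384-well plates, given 50 nL of library stock by pin tool, and given a PRR agonist 1 h later. Plates were held at 37 °C, 5% CO2 for 20 hours, after which supernatant was read for IRF by QuantiLuc luminescence and for NF-κB by QuantiBlue absorbance at 620 nm. Reporter activity is expressed as fold change over wells that received agonist alone. A well was called cytotoxic when IncuCyte confluency fell below 70% of agonist controls in both mask sets.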

RAW-Dual [2] = experiment: NF-kB SEAP reporter activity, fold change vs agonist alone; higher = enhanced NF-kB activity
Procedure, shortened: as §1

RAW-Dual [3] = experiment: NF-kB SEAP reporter activity, fold change vs agonist alone; cytotoxicity flag (confluency mask): not cytotoxic; higher = enhanced NF-kB activity
Procedure, shortened: as §1

[4] = agonist: ODN 1826 (TLR9) 0.5 ug/mL
[5] = agonist: Pam2CSK4 (TLR2/6) 0.1 ug/mL
[6] = agonist: Pam3CSK4 (TLR2/1) 0.1 ug/mL
[7] = library stock concentration (final ~1000-fold dilution): 10 mM, cytotoxicity flag (confluency mask): not cytotoxic, agonist: Imiquimod (TLR7) […]
[8] = library stock concentration (final ~1000-fold dilution): 10 mM, cytotoxicity flag (confluency mask): not cytotoxic, agonist: MPLA (TLR4) […]

Compound: CCOc1cc(C(=O)N2CCC(N3CCN(C)CC3)CC2)ccc1Nc1ncc2c(n1)N(C1CCCC1)c1ccccc1C(=O)N2C (library stock concentration (final ~1000-fold dilution): 10 mM)
- NF-kB SEAP reporter activity (RAW-Dual [1]; agonist: LPS (TLR4) 0.1 ug/mL): 5.49
- NF-kB SEAP reporter activity (RAW-Dual [1]; [4]): 1.31
- NF-kB SEAP reporter activity (RAW-Dual [1]; [5]): 1.36
- NF-kB SEAP reporter activity (RAW-Dual [1]; [6]): 3.42

Compound: CCOc1cc(C(=O)N2CCC(N3CCN(C)CC3)CC2)ccc1Nc1ncc2c(n1)N(C1CCCC1)c1ccccc1C(=O)N2C
- NF-kB SEAP reporter activity (RAW-Dual [2]; library stock concentration (final ~1000-fold dilution): 10 mM, cytotoxicity flag (confluency mask): cytotoxic (confluency <70% of control), agonist: Imiquimod (TLR7) […]): 1.44
- NF-kB SEAP reporter activity (RAW-Dual [2]; library stock concentration (final ~1000-fold dilution): 10 mM, cytotoxicity flag (confluency mask): cytotoxic (confluency <70% of control), agonist: MPLA (TLR4) […]): 2.71

Compound: O=c1cc(-c2ccc(O)c(O)c2)oc2cc(O)cc(O)c12
- NF-kB SEAP reporter activity (RAW-Dual [2]; [7]): 1.46
- NF-kB SEAP reporter activity (RAW-Dual [2]; [8]): 1.33

Compound: O=c1cc(-c2ccc(O)c(O)c2)oc2cc(O)cc(O)c12 (library stock concentration (final ~1000-fold dilution): 10 mM)
- NF-kB SEAP reporter activity (RAW-Dual [3]; agonist: LPS (TLR4) 0.1 ug/mL): 1.09
- NF-kB SEAP reporter activity (RAW-Dual [3]; [4]): 0.9
- NF-kB SEAP reporter activity (RAW-Dual [3]; [5]): 1.52
- NF-kB SEAP reporter activity (RAW-Dual [3]; [6]): 0.881

Compound: CCC1C(COc2nccc3cc(C(N)=O)c(OC)cc23)NC(=O)C1F (stereo unspecified) (library stock concentration (final ~1000-fold dilution): .1 mM)
- NF-kB SEAP reporter activity (RAW-Dual [3]; agonist: LPS (TLR4) 0.1 ug/mL): 0.475
- NF-kB SEAP reporter activity (RAW-Dual [3]; [4]): 0.244
- NF-kB SEAP reporter activity (RAW-Dual [3]; [5]): 0.151
- NF-kB SEAP reporter activity (RAW-Dual [3]; [6]): 0.199

Compound: CCC1C(COc2nccc3cc(C(N)=O)c(OC)cc23)NC(=O)C1F (stereo unspecified)
- NF-kB SEAP reporter activity (RAW-Dual [2]; library stock concentration (final ~1000-fold dilution): .1 mM, cytotoxicity flag (confluency mask): not cytotoxic, agonist: Imiquimod (TLR7) […]): 0.22
- NF-kB SEAP reporter activity (RAW-Dual [2]; library stock concentration (final ~1000-fold dilution): .1 mM, cytotoxicity flag (confluency mask): not cytotoxic, agonist: MPLA (TLR4) […]): 0.617

Compound: Cc1cc(Nc2ccc(NC(=O)c3ccc(Nc4ccnc5ccccc45)cc3)cc2)nc(N)n1 (library stock concentration (final ~1000-fold dilution): 10 mM)
- NF-kB SEAP reporter activity (RAW-Dual [3]; agonist: LPS (TLR4) 0.1 ug/mL): 2.34
- NF-kB SEAP reporter activity (RAW-Dual [3]; [4]): 0.228
- NF-kB SEAP reporter activity (RAW-Dual [3]; [5]): 0.856
- NF-kB SEAP reporter activity (RAW-Dual [3]; [6]): 1.34

Compound: Cc1cc(Nc2ccc(NC(=O)c3ccc(Nc4ccnc5ccccc45)cc3)cc2)nc(N)n1
- NF-kB SEAP reporter activity (RAW-Dual [2]; [7]): 1.31
- NF-kB SEAP reporter activity (RAW-Dual [2]; [8]): 2.36

Compound: CCOc1nc2cccc(C(=O)OCc3oc(=O)oc3C)c2n1Cc1ccc(-c2ccccc2-c2nc(=O)o[nH]2)cc1
- NF-kB SEAP reporter activity (RAW-Dual [2]; [7]): 1.15
- NF-kB SEAP reporter activity (RAW-Dual [2]; [8]): 0.931

Compound: CCOc1nc2cccc(C(=O)OCc3oc(=O)oc3C)c2n1Cc1ccc(-c2ccccc2-c2nc(=O)o[nH]2)cc1 (library stock concentration (final ~1000-fold dilution): 10 mM)
- NF-kB SEAP reporter activity (RAW-Dual [3]; agonist: LPS (TLR4) 0.1 ug/mL): 1.22
- NF-kB SEAP reporter activity (RAW-Dual [3]; [4]): 0.903
- NF-kB SEAP reporter activity (RAW-Dual [3]; [5]): 1.22
- NF-kB SEAP reporter activity (RAW-Dual [3]; [6]): 0.941

Compound: O=c1cc(N2CCOCC2)oc2c1ccc1ccccc12
- NF-kB SEAP reporter activity (RAW-Dual [2]; library stock concentration (final ~1000-fold dilution): 2 mM, cytotoxicity flag (confluency mask): not cytotoxic, agonist: Imiquimod (TLR7) […]): 1.04
- NF-kB SEAP reporter activity (RAW-Dual [2]; library stock concentration (final ~1000-fold dilution): 2 mM, cytotoxicity flag (confluency mask): not cytotoxic, agonist: MPLA (TLR4) […]): 0.989

Compound: O=c1cc(N2CCOCC2)oc2c1ccc1ccccc12 (library stock concentration (final ~1000-fold dilution): 2 mM)
- NF-kB SEAP reporter activity (RAW-Dual [3]; agonist: LPS (TLR4) 0.1 ug/mL): 1.12
- NF-kB SEAP reporter activity (RAW-Dual [3]; [4]): 1
- NF-kB SEAP reporter activity (RAW-Dual [3]; [5]): 0.982
- NF-kB SEAP reporter activity (RAW-Dual [3]; [6]): 1.07
